Source: the supplement of paper PMC10126150
Sequences with one replicate were seen in a single cluster, so their values are uncertain.

System: ATP
Assay: switch fluorescence ratio, 500 uM ATP over buffer (Cy3 cluster intensity, sum of 5 cycles each) (fold (ratio)); higher = stronger signal-on switching upon ATP binding; sequences stand for … in TCGTCGGCAGCGTCAGATGTGTATAAGAGACAGTTTTTTTTTTTTTTTTTTTTTTTTT…TC
Settings: aptamer strand: ATP DNA aptamer (quencher-CACCTGGGGGAGTATTGCGGAGGAAGG + anchor), 100 nM annealed; ATP concentration: 500 uM; one replicate
Method in brief: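 After annealing to 100 nM quencher-labelled ATP aptamer, Cy3-labelled switching-strand clusters on a modified Illumina MiSeq flow-cell were imaged in selection buffer. A second image followed after 15 min with 500 uM ATP at 22 °C, and five such buffer/ATP cycles were done, each separated by NaOH stripping and re-annealing. The fluorescence ratio, averaged per switch-domain sequence, is summed target-cycle over summed buffer-cycle Cy3 intensity per cluster, with clusters outside 100-1000 RFU excluded.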
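Further: ATP exposure 15 min at 22 °C before imaging.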

Sequence	switch fluorescence ratio
TCGGGAGTGT	1.01
TTCAGACTGG	0.997
TCTCGCAAGG	1.95
GTAAAATTGT	0.992
TTGAAAGATA	1
CGAGGTTGGT	0.993
TAAGAGGAAT	0.967
TTGAATGGAC	1.05
TCGTCGATAA	1.16
CCACGACC	1.03
TTTGTTGAA	1.01
TGCCACTATA	1.06
CAGCTAGCAG	1.02
TTTCCCCCTC	2.66
GCAGACTAGG	0.925
CAACCATTAG	0.994
GGTTGTTCCT	0.984
AGAAGGTAAT	0.987
TCGTATATAG	1
CCAGGTTGCG	1.09
AAAACTTACG	1.19
TCTGGGATGG	0.921
ATACAGATAG	1.01

Sequence	switch fluorescence ratio
CGAGAGACGA	1.05
CCATGAGGTC	0.916
TCTAAGCCTT	1.05
GGTTGGCGGT	0.997
GCGATGCTTT	1.05
TCAAGGTATG	1.02
CAAGTTTGCG	0.966
CAGTGTGGAG	1.04
TAGGGTCCTC	0.978
GTGCTAAG	0.957
AAGCATA	1.93
CGGGAAGCGA	1.06
CGCCGGGCTA	0.978
CACAGCAGAT	1.2
CTTAAACTAT	0.993
CCGATTTATC	1.11
AAATCTTATT	1.01
CAGTCAATTC	2.6
TACTAGGCAC	1.03
GGGGAGGTGG	1.01
CCACACGCAG	1.71
TAGCGTTGGC	1.03
GCCTGATGGG	1.11

Sequence	switch fluorescence ratio
TTAAACCGAA	1.12
GTTTCGGCAA	1.2
CGGCTAGCTA	1
TGCCTGAGCA	0.977
AGATTGCAGT	0.978
GGTTAAACAT	1.07
TAATAGATGT	1.02
ACGATCATGG	1.01
GCTGCGCGGC	1.03
TTCAGTCCAG	0.982
GCTTTTTTCC	1.18
AGAAACGAGA	0.931
TTCAGTCGCG	0.964
TTTCGTTCTA	0.96
ACGTACGAAC	1.32
GCTGCGCTCG	1.02
CAGTGTTTGT	0.986
TGTTTTAT	1.03
TTGTACTCTG	1.05
AGGCCTGATA	0.997
CAAGTATTAG	1.01
CAATCATGGG	1
TTAGAGAATG	1.02

Sequence	switch fluorescence ratio
GCCTGGACGG	0.975
GAGGCTGAAG	0.992
GTTTCCTAGT	1.01
GAAAACAGAA	0.991
CTCCGAGGTC	2.93
AGGTCTGACG	1.85
CATTGATTCT	0.954
TAAGTGTATA	1.01
CGTGGAGGTT	0.982
AAAGTCGGAA	0.991
GACTATCTGT	0.975
AGATGGGAAG	1
GCACATAAAT	1.06
CAGTGCGCGA	1.68
TACCTTGAGG	1.02
CCCTCATTC	0.992
TAGGCCGTGG	0.981
AGAATGTATA	1
TTGGTTAA	0.993
TCCTTGTGAG	1.04
ATCAGCTCAC	1.13
ATTAGCGGAT	0.993
GCGCTGTGGA	1.07

Sequence	switch fluorescence ratio
CTTTCCCACA	1.07
GTGTATTAGA	0.979
GCGGTTCAAT	0.989
GCGACCAAGG	1.01
GCGGTGGGCT	0.988
CCGTCTGGGC	1.03
GCTACGTTCT	1.01
TTAGACTATG	1.01
CATGGGCTTC	0.965
CCCGTTGAGA	0.997
TACTCTTGAT	0.979
GCTTTAAGA	1.05
GCTTGTTCCA	1.02
GCTAGTGGTT	0.952
GCATGCTACA	0.998
AGTCTTGGAT	1.01
TGGCTCAGCA	1.13
AAGTGTGTGC	0.984
GACGTTCTAA	1.08
AGTGGACTCT	1.01
AGAAAATTGA	0.971
CTAGCCAGGA	0.987
CACGACGTGG	1

Sequence	switch fluorescence ratio
GCACTTCCAT	1.04
ATGCTCAATG	0.937
CGGCGGCATT	1.08
ACAGCGAGTG	0.936
ATGGGGGAAG	0.982
GATACCCTAG	1.07
ATACTGGAAT	0.996
GTAGATGCTG	1.04
AGGTAGCGGA	0.992
TTTCGCTACG	2.07
TAGCTTGGTA	0.984
CAATGAGTTC	0.998
GTGTTGTGGC	0.963
TGTGTTAGCG	0.97
GATACGCTGT	1.06
GTTGTGTTAC	1.04
CGCGTGCTGA	1.03
ATGTTGCGCT	1
TATACCCGAA	1.05
ACCTTAGTG	0.983
TAATAGTCAG	1.02
TGGCTACTAA	1.02
CCGTGGAGTG	0.986

Sequence	switch fluorescence ratio
TCCACTGGGA	1.02
ATAAGTTGGC	0.967
GCGGGAGTGA	1.02
CGCGCACAAC	3.32
TGAAATCCTA	0.987
CGCTGGGCAA	1.79
TGTAGGCCGG	0.992
TGATTGTAAC	0.993
TAATTGTG	0.944
AAGTTGCCTA	0.993
AGACAATCTT	1.03
ACTATGGGT	1.01
TTCCGCTGGG	1.5
GATGTGGAGT	1
AATTCACGGG	1.12
CCTCCTTTCG	1.41
GCTTCGAGGC	1.02
GTTGCATAG	1
GATCTTCACT	0.985
